Test results as given in PubChem BioAssay AID488969 (Vanderbilt High Throughput Screening Facility, 2010).
In all, about 110,000 compounds were measured (“z-score”: median about -0.1, highest 2% from about 2 on). The list shows a part of the results. Calls of active or inactive are those of the source.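 How the source made its calls: active means z-score in the third read window above 3 or below -3; inactive means the rest.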

Molecular target: Metabotropic glutamate receptor 8 (Rattus norvegicus) (UniProt P70579)
UniProt P70579, sequence (P70579 whole entry, looked up): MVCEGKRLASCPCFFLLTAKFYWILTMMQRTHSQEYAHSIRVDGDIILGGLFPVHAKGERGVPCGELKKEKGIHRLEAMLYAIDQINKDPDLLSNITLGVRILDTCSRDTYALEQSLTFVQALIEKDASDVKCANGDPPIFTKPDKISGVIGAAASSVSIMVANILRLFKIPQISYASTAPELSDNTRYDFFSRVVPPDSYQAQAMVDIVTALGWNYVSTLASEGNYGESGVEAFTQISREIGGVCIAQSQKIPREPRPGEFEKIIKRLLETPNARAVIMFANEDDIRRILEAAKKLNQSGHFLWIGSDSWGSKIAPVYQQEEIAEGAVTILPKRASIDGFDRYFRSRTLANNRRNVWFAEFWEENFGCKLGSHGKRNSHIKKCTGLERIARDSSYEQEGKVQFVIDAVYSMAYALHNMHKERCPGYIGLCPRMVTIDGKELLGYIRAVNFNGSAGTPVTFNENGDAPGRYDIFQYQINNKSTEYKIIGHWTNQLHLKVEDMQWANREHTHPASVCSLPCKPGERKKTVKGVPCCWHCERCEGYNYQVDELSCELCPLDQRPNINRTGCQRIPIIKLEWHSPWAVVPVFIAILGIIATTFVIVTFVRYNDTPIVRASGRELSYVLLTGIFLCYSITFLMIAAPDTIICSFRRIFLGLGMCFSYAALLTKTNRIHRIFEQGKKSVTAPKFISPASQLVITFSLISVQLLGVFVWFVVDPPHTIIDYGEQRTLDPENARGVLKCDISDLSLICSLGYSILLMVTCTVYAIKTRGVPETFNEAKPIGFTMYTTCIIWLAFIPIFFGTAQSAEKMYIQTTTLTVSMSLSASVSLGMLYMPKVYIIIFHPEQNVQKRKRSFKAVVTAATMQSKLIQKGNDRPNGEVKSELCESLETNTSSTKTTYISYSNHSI
Experiment: rat mGluR8 modulators via GIRK flux, primary screen, cell-based, thallium flux, HTS (AID 488969)
Settings: HEK293 rat mGluR8, GIRK (G protein-gated inwardly rectifying potassium channel) thallium flux, FluoZin2; at 10 µM; stronger effect = higher value; submaximal glutamate (EC20) added with thallium

Compound	z-score
Cc1cccc(NC(=S)NCC(c2cccnc2)N2CCOCC2)c1 (configuration not stated)	-0.204
COc1cc(/C=C(/C#N)c2nc3ccccc3[nH]2)ccc1OC(=O)c1ccco1	-0.292
CCc1cc2c(=O)[nH]c(Cc3ccc(OC)cc3)nc2s1	0.542
Cc1ccc(CNCC2CCCO2)s1 (configuration not stated)	0.217
O=c1oc2ccccc2c(NCc2ccccc2F)c1[N+](=O)[O-]	-0.272
Cc1cc(=O)[nH]c(N/N=C/c2sccc2C)n1	-0.132
Cc1cc(OC(C)C)nc(-c2ccccc2O)n1	-0.023
Cc1ccc(Cn2nnc3c(=O)n(CC(=O)OCc4ccccc4)cnc32)cc1	-0.426
Cc1ccc(N2CC(C(=O)NCCc3ccc(S(N)(=O)=O)cc3)CC2=O)cc1 (configuration not stated)	0.343
O=C(O)C1CC(=O)N(Cc2cccs2)C1 (configuration not stated)	0.254
Cc1ccc(C(=O)COC(=O)c2ccc3c(c2)C(=O)N(c2cccc4ncccc24)C3=O)cc1C	0.234
N#CC1=C(N)N(c2ccc(Oc3ccccc3)cc2)C(=O)C1	0.892
N#CC1=C2SCN(Cc3ccccc3)CN2C(=O)CC1c1cccs1 (configuration not stated)	0.161
COc1ccc(C(OC(=O)c2ccco2)C(=O)NCc2ccc(C)cc2)cc1 (configuration not stated)	1.17
COc1cc(OC)cc(C(=O)NC(=S)Nc2ccc(NC(=O)c3ccco3)cc2)c1	-0.0757
CCCOc1ccc(-c2nnn(CC(=O)N3CCC(C)CC3)n2)cc1	0.081
CCc1ccc(N2CC(C(=O)NCc3ccco3)CC2=O)cc1 (configuration not stated)	-0.1
COC(=O)c1ccc(OC(=O)C2CC(=O)N(c3cccc(C)c3)C2)cc1 (configuration not stated)	-2.93
CC1CCN(c2nc3ccc(C(=O)N4CCN(Cc5ccccc5)CC4)cc3s2)CC1	-0.00212
CCN(CC(=O)Nc1ccc2c(c1)OCCO2)S(=O)(=O)c1cccs1	1.19
COc1ccc2c(c1)C1=NN(/C(C)=C\C(C)=O)C(c3ccccc3)C1CC2 (configuration not stated)	0.197
CCN(CC)S(=O)(=O)c1ccc(S(=O)(=O)N2CCN(C(=O)c3ccco3)CC2)cc1	0.0412
Cc1cccc(-c2nsc(SCC(=O)NCc3ccc4c(c3)OCO4)n2)c1	-0.0976

Compound	z-score
Cc1cc2cc(CNS(=O)(=O)c3ccccc3)ccc2n1C	-0.239
CCC12CN3CCN(CC(C3)/C1=N\NC(=O)c1ccc(C(C)(C)C)cc1)C2	0.0105
Brc1cc(Br)c2ncnc(N3CCCCC3)c2c1	0.0126
CCOc1ccc(N(CC(=O)NN=C2CCN(C)CC2)S(C)(=O)=O)cc1	-0.0704
CCOc1ccc(CN(C(=O)c2ccco2)C2CCS(=O)(=O)C2)cc1 (configuration not stated)	0.457
COc1ccccc1C(=O)CSc1n[nH]c(N)n1	0.413
C=CCNC(=O)C1=NOC(CNC(=O)c2c(-c3ccccc3Cl)noc2C)C1 (configuration not stated)	0.0601
CC1c2[nH]c3ccccc3c2CCN1C(=O)Nc1ccccc1 (configuration not stated)	-0.403
COc1ccc(NC(=O)CCNS(=O)(=O)c2ccc3c(c2)CCC(=O)N3)cc1	-0.358
CC(C)(C)c1cc(CCC(=O)N2CCNCC2)c(C(C)(C)C)cc1O	0.647
O=C(NCc1ccccc1)c1ccc(CN(c2ccccn2)S(=O)(=O)c2ccccc2)cc1	-0.805
COc1ccc(-c2c3c(nc4sc5c(Cl)nc(C)nc5c24)CCC3)cc1	-0.2
CCc1nnc(NC(=O)C2CCCN(S(=O)(=O)c3ccccc3)C2)s1 (configuration not stated)	-0.526
O=C1C=C(NCc2ccco2)CC(c2ccc(Cl)cc2)C1 (configuration not stated)	0.0824
CN(C)CCNc1nc2c(c(=O)[nH]c(=O)n2C)n1CCCc1ccccc1	active: 3.35
Brc1ccc(-c2nnc3c4ccccc4nc(N4CCOCC4)n23)cc1	active: 4.42
O=C(CSc1ccc2c(c1)OCCO2)Nc1cccc(S(=O)(=O)N2CCCCC2)c1	-0.41
O=S(=O)(NCCOC12CC3CC(CC(C3)C1)C2)c1cccc2nsnc12	0.716
COc1ccc(-c2noc(CN3CCN(c4ccccc4)CC3)n2)cc1	-0.17
CCOC(=O)C1=C(C)N(C)C(=O)NC1c1cccc(O)c1 (configuration not stated)	-0.0984
Cc1ccc(C)c(NC(=O)CSc2nnc3n2CCCCC3)c1	0.0204
Cc1ccc(C2=NN3C(C2)c2ccccc2OC32C(=O)Nc3ccccc32)cc1 (configuration not stated)	-0.148
COc1cc2[nH]c3c(Cl)ncnc3c2cc1OC	1.11

Compound	z-score
COc1ccc(C(=O)Nn2c(SCC(=O)c3ccc(Cl)cc3)nc3ccccc3c2=O)cc1	-0.0199
COc1ccc(Nc2cc(C)nc3nc(C)nn23)cc1Cl	-0.312
COCCOc1nc2c(c(=O)n(C)c(=O)n2C)n1CCc1ccccc1	-0.683
CCN(CC)c1ccc(C2NCC(c3ccc([N+](=O)[O-])cc3)O2)cc1 (configuration not stated)	-0.335
Cc1nc2nc(SCC(N)=O)[nH]c2cc1Br	0.124
O=C1CCC2c3ccc4ccccc4c3CCN12 (configuration not stated)	0.219
Cc1cccc(OCC(=O)Nc2ccc(N3CCN(C(=O)c4ccccc4)CC3)cc2)c1	-0.0735
Cc1cccc(C2N(c3ccc(F)cc3)C(=O)C3CCCN32)c1 (configuration not stated)	0.485
Cc1cc(CC(=O)O)c(C)cc1CC(=O)O	-1.04
O=C(COc1ccc(/C=N/NS(=O)(=O)c2ccccc2)cc1)NCCc1ccccc1	-0.376
O=c1c(Br)c(N2CCCC2)cnn1-c1ccccc1	-0.0475
COC(=O)c1ccccc1S(=O)(=O)NC(=O)c1ccccc1	0.16
COc1ccc(-c2cc(C(F)(F)F)n3nc(C(=O)N4CCOCC4)nc3n2)cc1	0.098
O=C(Nc1cccc(Cl)c1)NC1(C(=O)NCc2cccs2)CCCCC1	0.225
O=C(Nc1ccccc1)C1CCCCC1	-0.0328
Nc1nc(CN2CCOCC2)cs1	-0.301
CCCCCCNS(=O)(=O)c1ccc(Cl)s1	-0.0263
CCOC(=O)c1cnc(SC)nc1Oc1cccc(NS(=O)(=O)c2ccc(Cl)cc2)c1	0.294
CCCc1cc(-c2nc(-c3ccc(Cl)cc3)cs2)ccn1	-0.136
O=C(O)CSC(=S)N1CCCCC1	0.621
COc1ccc(CN(C(=O)CN2C(=O)c3ccccc3S2(=O)=O)C(C(=O)NCC2CCCO2)c2ccncc2)cc1 (configuration not stated)	-0.514
O=C(c1cc2ccccc2oc1=O)N1CCN(c2ncccn2)CC1	0.00205
CCCOc1ccc(C(=O)c2nc3c(n2O)CCCC3)cc1	0.0627

Compound	z-score
Cc1cccc(NC(=O)c2sccc2-n2cccc2)c1C	-0.81
O=C(CSc1cccs1)Nc1cccc2ccccc12	-0.442
Cc1cc(C)n(-c2cccc3cccnc23)n1	-0.125
COc1ccc(C(=O)N(CC(=O)NC(C)(C)C)c2ccc3c(c2)OCCO3)cc1OC	-0.943
CC(=O)c1cccc(NC(=O)CCOc2ccccc2)c1	0.782
COC(=O)c1cc(=O)nc2sc3cc(OC)ccc3n12	0.0761
CCOc1ccccc1N1C(=O)CC(Nc2ccc(N3CCOCC3)cc2)C1=O (configuration not stated)	-0.121
COC(=O)c1cc(-c2ccc(Br)cc2)on1	-1.67
O=C(CCCOc1ccc(Cl)cc1)N1CCOCC1	0.299
CCC(=O)Nc1ccc2nc(SCC(=O)N3CCCC3)sc2c1	-0.21
CCC(CC)C(=O)OCC(=O)Nc1ccc(S(=O)(=O)N2CCOCC2)cc1OC	-0.163
Cc1nn(-c2ccccc2)c(Cl)c1CN(C(=O)CCl)c1ccc(Cl)cc1	-0.928
Cc1[nH]c2ccccc2c1C(c1ccccn1)N1CCC(C(N)=O)CC1 (configuration not stated)	-0.157
CCOC(=O)c1cc(-c2ccccc2)sc1NC(=O)CN1C(=O)c2ccccc2C1=O	-0.0954
CCCC(=O)Nc1ccc(C(=O)N/N=C2\CC(=O)CC(C)(C)C2)cc1	-0.113
CC(C)(C)c1ccc(C(=O)Nc2nonc2-c2nc3ccccc3[nH]2)cc1	0.212
COc1ccc(C(=O)N/N=C/c2cccc3cccnc23)cc1	-0.417
CCOc1ccc(C(=O)NCC(c2cccs2)N(C)C)cc1OCC (configuration not stated)	-0.293
COc1ccc(-c2n[nH]c(=S)n2CC(C)C)cc1	-0.429
COC(=O)c1ccc(C)c(NC(=O)CCSc2ccccc2)c1	-0.0823
Cn1nc([N+](=O)[O-])nc1Sc1ccc(Cl)cc1	-0.174
Cc1ccc(-n2c(C)n[nH]c2=S)cc1	0.115
Cn1nc(-c2ccccc2)c(-c2nc(-c3cccc(Cl)c3)no2)c1Cl	-0.289

Compound	z-score
C=CCN1C(=O)C(Cc2ccc(OC)cc2)S/C1=N/N=C/c1ccco1 (configuration not stated)	-0.0726
CCCc1cc(N2CCCC(C(=O)Nc3cc(Cl)ccc3OC)C2)n2ncnc2n1 (configuration not stated)	-0.857
O=C(c1ccc(F)cc1)N1CCN(C2CC3CCC2C3)CC1 (configuration not stated)	0.268
C=C(C)CSc1nnc(-c2ccccc2)n1N	0.148
Cn1/c(=N/N=C/c2ccc(Cl)c([N+](=O)[O-])c2)sc2ccccc21	0.0387
O=C(CSc1nnc(-c2ccc3c(c2)OCCO3)o1)N1CCCC1	1.13
COc1ccc(C(=O)NCc2nnc(SCC(=O)N3CCc4ccccc43)n2Cc2ccccc2)cc1	-0.0589
COc1cccc(/C=N/NC(=O)c2ccc(OCc3cccc(Br)c3)cc2)c1	0.138
COc1ccccc1-c1noc(-c2ccccc2C(=O)Nc2ccccc2)n1	-0.572
CN(c1ccc(C(=O)Nc2cccnc2)cc1)S(C)(=O)=O	0.0155
COc1ccccc1Oc1ccc(S(=O)(=O)N2CCOCC2)cc1S(=O)(=O)N1CCOCC1	-0.453
C=C(C)c1cccc(C(C)(C)NC(=O)N(Cc2ccccc2)Cc2ccco2)c1	-0.101
O=C1C(NS(=O)(=O)c2cccs2)=C(N2CCN(c3ccccc3)CC2)C(=O)c2ccccc21	0.0931
COc1ccc(OC)c(NC(=O)c2cc(-c3cc(Cl)ccc3O)n[nH]2)c1	0.806
Cc1ccccc1-n1nc(C)c2cc(C(=O)N3CCN(S(=O)(=O)c4ccc(Cl)cc4)CC3)sc21	-0.194
COC(=O)N/N=C/c1c[nH]c2ccccc12	-0.591
COc1ccc(CCNC(=O)COc2ccc(S(=O)(=O)N3CCOCC3)cc2)cc1OC	0.119
c1cnc(SCCOc2ccc3c(c2)CCC3)nc1	0.191
CN(CCO)c1c2c(nc3cc(-c4cccc(F)c4)nn13)CCCC2	-0.479
Cc1ccc(S(=O)(=O)N2CCN(C(=O)CN3CCCCC3)C2)cc1	-0.162
